# Experimental data published in PubChem BioAssay AID624296 (National Center for Advancing Translational Sciences (NCATS), 2012).
# The whole screen tested about 350,000 compounds, of which about 9,900 (2.8%) were called active. Inconclusive results, whose numbers are uncertain, are shown with a selection of clear calls. Calls follow the shape of the dose curve; as a rule, active = well fitted activation curve with a large enough effect; inconclusive = small, poorly fitted or top-dose-only effect; inactive = no such curve, though single readings can be large or run the other way. Potencies of inconclusive entries are left out as doubtful fits.
# Assay: A quantitative high throughput screen for small molecules that induce DNA re-replication in MCF 10a normal breast cells. Also: nearly all actives have a fitted effect of over 50% in size. As to activity, positive = re-replication: % of control where 0% means no effect.
# Settings: MCF 10A DNA re-replication, Hoechst nuclear intensity, 48 h; activity, positive = re-replication: at 46.1 µM (top of the series)
# Potency is read from the fitted curve at half-maximal effect; tags tell the direction and shape of the fitted curve.
SMILES,Potency,"activity, positive = re-replication"
CCCCCCCCCCCC1N=C(N)NC(CCCO)=C1C(=O)OC (stereo not given),"inconclusive [activator, single point]",
Cc1nc(N2CCC(C)CC2)c2c(C)c(C(=O)Nc3ccc(C)c(F)c3)sc2n1,,inactive: -0.527%
Cc1csc(NC(=O)c2ccc(-c3ccc(Cl)cc3Cl)o2)n1,active: 18.4 µM,
Cc1cc(C)c(C(=O)N(C)C2CCCN(Cc3ccccc3F)C2)o1 (stereo not given),,inactive: -0.68%
CC(=O)C12OC(C)(C)OC1CC1C3CCC4=CC(=O)C=CC4(C)C3(F)C(O)CC12C (stereo not given),"inconclusive [activator, full curve, poor fit]",
C/C=C/COC(=O)c1[nH]c2c(c1C)C(=O)CC(c1ccc(N(C)C)cc1)C2 (stereo not given),"inconclusive [activator, single point]",
CCC(=O)Nc1ccc(N2CCCCC2)c(C(=O)Nc2ccccc2C)c1,,inactive: 2.75%
NC(=O)c1ncn(C2OC(CO)C(O)C2O)n1 (stereo not given),,inactive: -1.39%
COn1c(SCc2ccccc2)nc2ccccc2c1=O,"inconclusive [activator, partial curve, poor fit]",
O=C(N/N=C/c1cc(Br)ccc1O)c1ccccc1Cl,"inconclusive [activator, partial curve, poor fit]",
COc1ccccc1-c1cc(C(F)(F)F)nc(NCc2ccco2)n1,"inconclusive [activator, single point]",
CCCCCn1c(=O)c2ccccc2n2c(CCl)nnc12,"inconclusive [activator, single point]",
CS(=O)(=O)N1CCC(C(=O)Nc2cc(Cl)cc(Cl)c2)CC1,"inconclusive [activator, single point]",
COc1ccc(CN2CCN(S(=O)(=O)c3ccc(NC(C)=O)cc3)CC2)cc1OC,"inconclusive [activator, single point]",
CCOC(=O)C1(Cc2cccc(F)c2)CCN(Cc2cnn(CC)c2)CC1,"inconclusive [activator, partial curve, poor fit]",
Fc1ccc(COc2ccc(C(=S)N3CCCC3)cc2)cc1,"inconclusive [activator, single point]",
Cc1cc(CNC(=O)Cc2ccc(F)cc2)c2ccccc2n1,,inactive: 0.403%
CC(C)OCCCN(C)C1CCN(S(=O)(=O)c2csc(C(N)=O)c2)CC1,,inactive: -1.45%
O=C(CCS(=O)(=O)c1ccccc1)Nc1cccc(-c2nc3ccccc3s2)c1,"inconclusive [activator, single point]",
c1ccc2sc(N3CN(CCN4CCOCC4)CN(c4nc5ccccc5s4)C3)nc2c1,"inconclusive [activator, single point]",
CCCCCCCCCCCCCCCC(=O)OC(CC(=O)O)C[N+](C)(C)C (stereo not given),,inactive: -1.18%
CC1CC(C)CN(c2oc(Cc3ccccc3)nc2C#N)C1 (stereo not given),"inconclusive [activator, partial curve, poor fit]",
CSC(=NC#N)N1CCN(c2ccccc2)CC1,,inactive: -1.95%
CCOC(=O)c1c(-c2ccccc2)oc2ccc(OC(C)=O)cc12,"inconclusive [activator, single point]",

SMILES,Potency,"activity, positive = re-replication"
COc1cc(OC)cc(C(=O)Nc2ccc(-c3nc4ccccc4o3)cc2)c1,"inconclusive [activator, single point]",
C=CCn1c(O)c2ccc(C(=O)N=NC(=O)COc3ccccc3F)cc2c1O,,inactive: -2.79%
O=[N+]([O-])c1cc2ccccc2nc1-c1ccccc1,,inactive: 5.75%
CCOC(=O)c1c(NC(=O)C2CCCCC2)sc2c1CCN(C(C)C)C2,"inconclusive [activator, partial curve, poor fit]",
O=C(c1ccc(OC2CCN(C(=O)c3cccnc3)CC2)cc1)N1CCCCCC1,"inconclusive [activator, single point]",
CCc1ccccc1N(CC(=O)Nc1cccnc1)S(=O)(=O)c1ccccc1,,inactive: -0.307%
COc1ccc(N(CC(=O)NCCSCc2ccccc2C)S(=O)(=O)c2ccccc2)cc1,"inconclusive [activator, single point]",
COc1cccc(CNC(=O)C2CCN(S(=O)(=O)c3ccc(C)cc3)CC2)c1,,inactive: -0.55%
O=Cc1ccc(N2N=C(c3ccccc3)CC2c2ccccc2)cc1 (stereo not given),"inconclusive [activator, full curve, poor fit]",
Cn1cc(CN2CCC(n3nccc3NC(=O)c3ccccc3Cl)CC2)cn1,,inactive: 2.39%
COc1ccc(CN2CCCC(C(=O)c3ccc(SC)cc3)C2)cc1Cn1cccn1 (stereo not given),"inconclusive [activator, single point]",
CS(=O)(=O)N(CC(=O)NC1CCCC1)Cc1ccc(Cl)cc1,,inactive: 1.63%
CCc1nc(C)cc2c1sc1ccccc12,"inconclusive [activator, full curve, poor fit]",
CCC(=O)Nc1cccc(C2=NN(c3ccccc3)C(c3ccc(OC)cc3)C2)c1 (stereo not given),"inconclusive [activator, partial curve, poor fit]",
CC1=N/C(=C\c2ccc([N+](=O)[O-])cc2)C(=O)N1c1ccc(Br)c(C)c1,"inconclusive [activator, partial curve, poor fit]",
O=C(Cc1csc(Nc2nc(=S)[nH]c3ccccc23)n1)N1CCN(c2cccc(Cl)c2)CC1,"inconclusive [activator, partial curve]",
CCn1nc(NC(=O)c2ccccc2)c2cc3cccc(C)c3nc21,active: 6.51 µM,
CCOc1ccc2nc(NC(=O)C3=NN(c4ccccc4)C(=O)CC3)sc2c1,"inconclusive [activator, partial curve, poor fit]",
CC(C)(C)Nc1c([N+](=O)[O-])c(=O)sc2ccccc12,"inconclusive [activator, single point]",
COc1ccc2c(c1)CCC/C2=N\OC(=O)c1ccccc1F,"inconclusive [activator, single point]",
O=C(NCc1ccco1)c1csc2c1CCCCC2,"inconclusive [activator, partial curve, poor fit]",
O=C(NCCCN1CCOCC1)c1cccc(S(=O)(=O)N2CCc3ccccc3C2)c1,"inconclusive [activator, partial curve]",
Cc1sc2nc(SCC(=O)N3CCOCC3)[nH]c(=O)c2c1-c1ccccc1,,inactive: -2.94%
CCN1CCCC1CNC(=O)c1cc2cc(F)ccc2[nH]1 (stereo not given),"inconclusive [activator, single point]",

SMILES,Potency,"activity, positive = re-replication"
Cc1nc2ccccc2c(=O)n1NC(=O)COc1ccccc1,"inconclusive [activator, full curve, poor fit]",
Cc1noc(C)c1COC(=O)c1csc2c1CCCC2,"inconclusive [activator, full curve]",
Cc1cc(C(=O)CN2C(=O)c3ccccc3C2=O)c(C)n1C1CC1,,inactive: 0.339%
COC(=O)c1c(-c2ccccc2OC)sc2cc3c(cc12)OCO3,"inconclusive [activator, single point]",
CC(C)c1ccc(/C=N/NC(=O)CN(c2cccc(Cl)c2Cl)S(C)(=O)=O)cc1,"inconclusive [activator, single point]",
CCCc1cc(=O)[nH]c(SCC(=O)c2cc(C)n(CC(F)(F)F)c2C)n1,,inactive: 20.9%
Cc1cccc(NC(=O)CC2C(=O)NCCN2C(=O)Nc2ccc(Cl)cc2)c1 (stereo not given),,inactive: -14.2%
CCOc1ccc(CC(=O)Nc2ccc(NC(=O)c3ccco3)cc2)cc1OCC,,inactive: 9.32%
COCCn1c(-c2ccc(OC)cc2)cnc1SCC(=O)Nc1cccc2ccccc12,,inactive: 0.143%
COc1ccc(CNC(=O)Nc2ccc(OC)cc2)cc1,active: 18.4 µM,
COc1cc(C(=O)N2CCN(Cc3ccccc3C(F)(F)F)CC2)cc(OC)c1OC,"inconclusive [activator, partial curve, poor fit]",
C=CCn1c(COc2ccc(CC)cc2)nnc1SC/C(O)=C(\C#N)c1nc2ccccc2[nH]1,"inconclusive [activator, single point]",
COc1ccc(/C=C(\NC(=O)c2ccc(OC)cc2)C(=O)Nc2ccccc2C(=O)O)cc1,,inactive: 2.91%
N=c1c(C(=O)NC2CCCCC2)cc2c(=O)n3ccccc3nc2n1Cc1cccnc1,"inconclusive [activator, partial curve, poor fit]",
COc1ccc(NC(=O)c2cccc(S(=O)(=O)Nc3ccc(Br)cc3)c2)cn1,"inconclusive [activator, partial curve, poor fit]",
O=C(NCCC1=CCCCC1)C1CCN(S(=O)(=O)N2CCCC2)CC1,,inactive: -1.48%
Cc1nc(N)c(C#N)c(-c2cccnc2)c1C,"inconclusive [activator, single point]",
O=C(Nc1cccc(-c2nc3ncccc3o2)c1)c1cc2ccccc2o1,"inconclusive [activator, partial curve]",
Cc1ccc(S(=O)(=O)NC(=O)c2ccc(-c3ccc(C)c4ccccc34)o2)cc1,"inconclusive [activator, single point]",
O=c1cc(-c2ccccc2)nc2nc(-c3ccco3)[nH]n12,"inconclusive [activator, partial curve, poor fit]",
Cc1ccc(C2N(C)c3ccccc3-c3nc4ccccc4n32)o1 (stereo not given),"inconclusive [activator, single point]",
O=C(OCC#CCSc1nnc(-c2ccccc2)o1)c1cc2ccccc2o1,,inactive: 2.69%
